Consider 42 compounds from PMC4336329 (PLoS ONE, 2015).

Molecules are shown by their SMILES. Out of some 310,000 compounds screened, about 14,000 (4.5%) showed an effect of 50% or more. The effect is printed as a negative number. Some of the results follow.
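Note: peak tail current of the secondary pulse compared with the same well before compound.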

human ether-à-go-go-related gene (hERG) potassium channel, sequence (Q12809 whole entry, looked up): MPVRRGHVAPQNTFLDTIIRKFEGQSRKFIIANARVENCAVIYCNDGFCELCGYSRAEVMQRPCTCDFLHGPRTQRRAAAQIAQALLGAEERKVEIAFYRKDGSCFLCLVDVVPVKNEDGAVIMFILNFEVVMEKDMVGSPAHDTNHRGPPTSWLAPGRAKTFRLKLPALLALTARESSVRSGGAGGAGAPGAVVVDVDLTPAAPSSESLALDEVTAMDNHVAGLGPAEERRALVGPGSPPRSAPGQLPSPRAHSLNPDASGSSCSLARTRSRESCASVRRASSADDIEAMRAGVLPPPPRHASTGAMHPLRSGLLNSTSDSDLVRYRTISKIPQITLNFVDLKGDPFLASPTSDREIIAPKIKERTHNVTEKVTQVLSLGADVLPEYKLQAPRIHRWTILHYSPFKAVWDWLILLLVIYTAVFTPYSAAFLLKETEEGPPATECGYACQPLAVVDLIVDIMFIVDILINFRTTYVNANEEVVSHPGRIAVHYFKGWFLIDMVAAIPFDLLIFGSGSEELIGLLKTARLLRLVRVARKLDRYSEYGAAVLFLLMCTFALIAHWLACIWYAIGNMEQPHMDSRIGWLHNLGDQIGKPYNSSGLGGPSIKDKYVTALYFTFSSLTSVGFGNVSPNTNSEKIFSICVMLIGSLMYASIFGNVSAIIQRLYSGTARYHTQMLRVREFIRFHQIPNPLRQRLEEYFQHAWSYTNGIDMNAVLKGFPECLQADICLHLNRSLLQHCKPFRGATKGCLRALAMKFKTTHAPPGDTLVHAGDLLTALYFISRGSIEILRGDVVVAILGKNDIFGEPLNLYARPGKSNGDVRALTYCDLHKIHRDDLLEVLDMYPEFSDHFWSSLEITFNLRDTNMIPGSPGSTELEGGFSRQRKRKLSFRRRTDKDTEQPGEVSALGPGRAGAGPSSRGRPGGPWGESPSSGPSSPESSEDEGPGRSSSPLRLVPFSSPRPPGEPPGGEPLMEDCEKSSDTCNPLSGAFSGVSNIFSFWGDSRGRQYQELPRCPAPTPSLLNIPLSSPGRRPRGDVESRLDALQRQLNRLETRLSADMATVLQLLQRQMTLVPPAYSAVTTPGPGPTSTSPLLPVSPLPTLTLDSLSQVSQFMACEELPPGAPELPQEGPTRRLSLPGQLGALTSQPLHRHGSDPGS

This assay has as its target human ether-à-go-go-related gene (hERG) potassium channel (human, UniProt Q12809). The assay is described as follows: primary screen, population patch clamp on CHO cells stably expressing hERG.
Regarding `O=C(NCCc1ccccc1F)c1cccc2cccnc12`, the “hERG current change (%, negative = inhibition) at 10uM” value is given as 13.6%.

Consider `Cc1ccn2nc(C(=O)OCC(=O)N(CC(C)C)C3CCS(=O)(=O)C3)nc2n1` (stereo not drawn), for which the “hERG current change (%, negative = inhibition) at 10uM” value was 19.2%.

For `O=C(Cc1cccc2ccccc12)NC(=S)Nc1cccc(C(=O)O)c1`, the “hERG current change (%, negative = inhibition) at 10uM” value stood at 15.6%.

As to `CCCCCC(=O)NC(NC(=S)NC1CCS(=O)(=O)C1)C(Cl)(Cl)Cl` (stereo not drawn), the “hERG current change (%, negative = inhibition) at 10uM” value is -10.4%.

As for `Cc1cc(=O)[nH]c(SCC(=O)NC2CCCCC2)n1`, the “hERG current change (%, negative = inhibition) at 10uM” value came out at 8.81%.

Regarding `CC1CCN(C(C(=O)Nc2ccc(C(C)C)cc2)c2ccc3c(c2)OCO3)CC1` (stereo not drawn), the “hERG current change (%, negative = inhibition) at 10uM” value was -29.5%.

For `COc1ccc(CNC(=S)Nc2cc(OC)ccc2OC)cc1`, the “hERG current change (%, negative = inhibition) at 10uM” value is given as -14%.

Regarding `COc1ccc2c(C)cc(Sc3nnnn3-c3ccccc3)nc2c1`, the “hERG current change (%, negative = inhibition) at 10uM” value is -16.3%.

Regarding `COCCNCC(=O)NC12CC3CC(CC(C3)C1)C2`, the “hERG current change (%, negative = inhibition) at 10uM” value is 8.91%.

On to `COc1ccc(-n2nc(C(=O)NCC(=O)Nc3cccc(C)n3)c3ccccc3c2=O)cc1`, for which the “hERG current change (%, negative = inhibition) at 10uM” value amounted to 13.2%.

As to `Nc1c(C(=O)NCCC2=CCCCC2)sc2ccc(S(=O)(=O)N3CCCCC3)cc12`, the “hERG current change (%, negative = inhibition) at 10uM” value is -5.44%.

As to `O=C(Nc1cccc(Cl)c1)Nc1nnc(CSCCOc2ccc(Cl)cc2)s1`, the “hERG current change (%, negative = inhibition) at 10uM” value worked out at 8.06%.

`Cc1ccc(N(C(=O)c2csnn2)C(C(=O)NC2CCCCC2)c2ccccn2)cc1` (stereo not drawn): the “hERG current change (%, negative = inhibition) at 10uM” value was 18.7%.

With `CCN(CC(=O)Nc1ccccc1OC)C(=O)c1ccc2[nH]c3c(c2c1)CC(C)CC3` (stereo not drawn), the “hERG current change (%, negative = inhibition) at 10uM” value is reported as -1.35%.

Take `CC(C)C(NC(=O)c1ccc(Cl)cc1)C(=O)O` (stereo not drawn): the “hERG current change (%, negative = inhibition) at 10uM” value came to 5.78%.

Regarding `COc1ccc(N/C=C2\CCOC2=O)cc1`, the “hERG current change (%, negative = inhibition) at 10uM” value is -2.84%.

On to `Cc1cccc(N2CCN(C3=NC(=O)C(Cc4ccccc4)S3)CC2)c1` (stereo not drawn), for which the “hERG current change (%, negative = inhibition) at 10uM” value is on record as -30.7%.

Regarding `O=C(COC(=O)CC(c1ccccc1)c1ccccc1)NCc1ccccc1`, the “hERG current change (%, negative = inhibition) at 10uM” value turned out to be 7.51%.

Turning to `CCC(c1nnnn1Cc1ccco1)N(Cc1cc2cc(C)cc(C)c2[nH]c1=O)CC1CCCO1` (stereo not drawn), the “hERG current change (%, negative = inhibition) at 10uM” value is -13%.

Regarding `Cc1ccc(C2=NCCn3nc4cc(C(F)(F)F)ccc4c32)cc1`, the “hERG current change (%, negative = inhibition) at 10uM” value came to 4.21%.

With `CCCN1CCC(=O)N([C@H](CSc2ccccc2)c2ccccc2)CC1`, the “hERG current change (%, negative = inhibition) at 10uM” value was -77.2%.

Consider `O=C(O)c1ccccc1-c1ccccc1C(=O)Nc1ccc(OC(F)(F)F)cc1`, for which the “hERG current change (%, negative = inhibition) at 10uM” value was 14.1%.

With `CCCCN(C)CCNC(=O)c1ccc(Cn2c(=S)[nH]c3ccc(Br)cc3c2=O)cc1`, the “hERG current change (%, negative = inhibition) at 10uM” value is reported as -41%.

As to `O=C(O)C1(P(=O)(c2ccccc2)c2ccccc2)CCCC1`, the “hERG current change (%, negative = inhibition) at 10uM” value was -17%.

For `Cc1ccc(S(=O)(=O)N2CCC(C(=O)Nc3ncccc3O)CC2)cc1`, the “hERG current change (%, negative = inhibition) at 10uM” value is given as -27.2%.

`CC(C)(O)C#Cc1ccc(C(=O)N2CCN(c3ccccc3)CC2)cc1`: the “hERG current change (%, negative = inhibition) at 10uM” value is listed as 11.3%.

For the compound `COc1ccc(N(C(=O)c2snc(C(N)=O)c2N)C(C(=O)NC2CCCC2)c2ccco2)cc1` (stereo not drawn), the “hERG current change (%, negative = inhibition) at 10uM” value is -1.76%.

`CCOC(=O)CNC(=O)c1ccc(C)cc1`: the “hERG current change (%, negative = inhibition) at 10uM” value was 4.88%.

Regarding `O=S(=O)(Nc1nc2ccccc2nc1NCCN1CCOCC1)c1cccc(Cl)c1`, the “hERG current change (%, negative = inhibition) at 10uM” value was found to be 3.15%.

On to `S=C(Cc1ccc(-c2ccccc2)cc1)N1CCOCC1`, for which the “hERG current change (%, negative = inhibition) at 10uM” value is recorded as -11.9%.

Turning to `COc1cc(OC)cc(C(=O)N[C@H](C(=O)Nc2nc(-c3ccc(F)c(F)c3)cs2)C(C)C)c1`, the “hERG current change (%, negative = inhibition) at 10uM” value was determined as 8.68%.

Consider `O=C(Nc1nnc(C2=COCCO2)o1)c1ccc(Br)cc1`, for which the “hERG current change (%, negative = inhibition) at 10uM” value was -0.63%.

As to `Cc1ccc2[nH]c(C(=O)O)c(NC(=O)CN3CCN(c4cccc(C)c4C)CC3)c2c1.Cl`, the “hERG current change (%, negative = inhibition) at 10uM” value was 13.1%.

Regarding `CN(C(=O)/C=C/c1cnc2ccccc2c1)C1CCCCC1`, the “hERG current change (%, negative = inhibition) at 10uM” value was -13.3%.

In the case of `CC(c1ccccc1)N1C(=O)NC(NC(=O)c2cccnc2)(C(F)(F)F)C1=O` (stereo not drawn), the “hERG current change (%, negative = inhibition) at 10uM” value is recorded as -2.4%.

In the case of `COCCN1Cc2cccc(C(=O)N3CCN(c4cc(C)ccc4C)CC3)c2C1=O`, the “hERG current change (%, negative = inhibition) at 10uM” value is -16.5%.

As for `CC(=O)c1ccc(NC(=O)c2ccc(NC(=O)CCS(=O)(=O)c3cccs3)cc2)cc1`, the “hERG current change (%, negative = inhibition) at 10uM” value is -0.819%.

For `O=C(N/N=C/c1cccc(OC(=O)N2CCOCC2)c1)c1cccs1`, the “hERG current change (%, negative = inhibition) at 10uM” value is given as -0.341%.

Consider `CC(C)c1ccc(N(CC(=O)O)S(=O)(=O)c2cccnc2)cc1`, for which the “hERG current change (%, negative = inhibition) at 10uM” value is 0.506%.

Turning to `COC(=O)C1(c2ccccc2)NC(c2ccc(O)cc2)C2C(=O)N(c3ccc4c(c3)OCO4)C(=O)C21` (stereo not drawn), the “hERG current change (%, negative = inhibition) at 10uM” value is listed as -39.4%.

As for `CC(C)OC(=O)c1nnc(Cc2ccc(Cl)cc2)o1`, the “hERG current change (%, negative = inhibition) at 10uM” value worked out at 7.23%.

For `Cc1nc2nc(-c3ccco3)[nH]n2c(=O)c1Cc1ccccc1`, the “hERG current change (%, negative = inhibition) at 10uM” value is reported as -20.5%.
